Data as given in the supplement of paper PMC10126150.
Sequences with one replicate were seen in a single cluster, so their values are uncertain.

Test system: ATP
Assay: switch fluorescence ratio, 500 uM ATP over buffer (Cy3 cluster intensity, sum of 5 cycles each) (fold (ratio)); higher = stronger signal-on switching upon ATP binding; sequences stand for … in TCGTCGGCAGCGTCAGATGTGTATAAGAGACAGTTTTTTTTTTTTTTTTTTTTTTTTT…TC
Details: aptamer strand: ATP DNA aptamer (quencher-CACCTGGGGGAGTATTGCGGAGGAAGG + anchor), 100 nM annealed; ATP concentration: 500 uM; one replicate
In short: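 For every switch-domain sequence, the fluorescence ratio is the mean of per-cluster values, each being summed target-cycle Cy3 intensity over summed buffer-cycle Cy3 intensity. Clusters outside 100-1000 RFU were excluded. On a modified Illumina MiSeq flow-cell, the Cy3-labelled switching-strand clusters were annealed to 100 nM quencher-labelled ATP aptamer, imaged in selection buffer and then after 15 min with 500 uM ATP at 22 °C. Five such cycles were run, with NaOH stripping and re-annealing between them.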
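Further: ATP exposure 15 min at 22 °C before imaging.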

Sequence	switch fluorescence ratio
AAAATGTG	0.996
CGTTTCATAA	0.978
AATGTCTGCG	0.954
CAGAGTGATT	1.03
TTGGTATACC	0.959
ATCTCTAATG	0.943
CGGCGGTGGG	0.993
GCTGGCCTTA	1.02
TAAAGTAACG	0.973
TTAGGATTTA	0.979
AGTAAGGTCG	0.958
TGTTACTTTA	1.04
GCACGGAGAG	1.07
AGAGAATCAA	1.02
TCCCATGAGG	1.01
TACAGGACAG	1.06
GGGCCAATGG	1
TGCGAATCGC	1.06
CGATTCCCGA	1.05
CAGTTCGCAC	1.41
GGTTATTACG	1.02
CGTAATGGGC	1.05
AGAGAATAGT	0.929
AAATAGGATT	1.03
GATTATTGA	1.02
AGTAAAATCT	0.987

Sequence	switch fluorescence ratio
GTCCATCGGT	0.997
GAGCTTTCTC	1.06
ACGTGGCTCA	1
CGCATGCTGT	1.02
CTAGGGGCAA	1.83
AAGGTATTAT	1.02
ACTTAAAGGT	1.05
CTGAAGGGTC	0.969
TTTTTATACC	1.04
GTTGTCGGTT	1.03
GCCTTTCGGT	1
CGCGCAACAG	2.23
ATGGGGAAGG	0.95
AGGTCGTAGA	0.999
CGCGGGGCAG	0.997
ATAACCCCTG	1.05
GCATTTGGCA	1.09
CACACAAGGC	1.18
CGACTCAGCG	1.04
CTGTGGTGTA	0.993
GGTTCACTTA	1.01
CCACTTAGAG	1.08
CGCTGCAAGC	1.84
GGATAAGCTG	1.03
CACGTCCTAC	1.29
TCGTAGTGCG	1.06

Sequence	switch fluorescence ratio
CCGTATGT	0.986
TATAGGAGCG	1.01
TGTAAAAACT	0.964
ATATAGAGAG	1.01
TTACCACAC	1.49
GTCGCAAGCA	1.12
AAAAATATCC	0.949
TGGCCGGGC	1.05
ACTCTTCCGC	2.22
TAACCTTGTT	1.02
ATGAGGGTC	1.04
AAGACGTGC	1.03
TGTTCTCTAA	0.968
GGGACGTGGA	1.01
CTTTACATGT	1.03
CTCTTCAGTG	1.04
GTGTTTGAGG	0.985
CGGGTGGGTT	0.967
TGGATAATTA	1.08
ATGATGGATG	0.976
GTCGAATCTA	0.966
GAGTAGAACC	1.04
ACGAATATGC	1.28
GGGTGATAAG	1.01
GCGGTTAAAC	1.02
TCTTTATTTA	0.989

Sequence	switch fluorescence ratio
TAGAGCAGGA	0.999
ACTTGCATGG	1.29
ATGGCGGTGT	1.02
TCGATGGCGG	0.978
GATTTACGTT	1.01
ATGAGTGCGA	1.01
GTTTGGGTAT	0.985
GTTTAGTCTG	1.02
AGTCCGTCTC	0.972
CGGCCGCCGC	1.26
TTCATATGAT	0.944
CTCTGGCGAA	1.43
TGCGCTATGC	2.82
AGCGCTCCAA	1.07
GGCGAACGTT	0.976
TTAATAACCG	1.04
AAGGCCGACT	1.01
GTAAAAAACT	1.04
CTAAATTTGC	0.998
AAAATTGGAT	1
AAGTCGCAGA	0.97
GCATATGGAA	1.02
AGATGCGTGC	1.01
GCAGGGAGAC	1.11
CAGCGAACGA	1.11
ATCGGTCGCA	1.02

Sequence	switch fluorescence ratio
TGCCGATCCT	0.969
TCCGAATATG	1.2
CACCATATAC	2.73
AAGAAAGCGC	1.07
GCGAGTTATA	1.01
CTGTTTTTTC	1.03
TACTAATCG	1.01
TCGCTAGAGA	0.993
GGGTAGCCCA	0.995
ACAAGCTCCC	1.44
ATCGTCTTAT	0.972
AGCTGAGGCG	0.971
TAGAGGATGG	1
TGGGATATCA	1
ACCCAAAATA	0.986
CCAGAGCCGT	1.14
GGGAGACCTC	1.03
AAACCATGGG	1
TAGCTCCTCC	1.2
TTCTCTTAGG	0.996
TCTTGGGGAA	0.985
CTCCCGTCTC	1.28
GGCGTCCCAA	0.996
GATGTATCTA	0.977
TCAACGATAC	2.02
CGGATCGGA	0.965

Sequence	switch fluorescence ratio
GCATCGAACG	1.03
GGTGCACGG	0.987
CTCACCCCAG	2.64
GCCCACCGTG	1.14
AAATCTCCCT	1.13
GTTGAGATGG	0.965
GACACTTGGG	1.01
TGAAGCAGAG	1.36
TGGCCAAGAG	1.01
ATCTGGAAGG	0.951
CACTTTGCCC	1.05
TCTGTCATTG	0.973
AGAAGTAAAT	1
CCATTTGTTA	1.01
ACGGGAACG	1.05
ATTCGGACTC	0.968
GGACGACCAA	1.07
GTGTGGGTTG	1.06
TCTCGGAACC	1.11
TCTCGGAGGC	1.09
GGGCTTTTAT	0.985
TGGGATGCGG	1.05
CTAATATAAC	1.01
